Test results taken from PubChem BioAssay (NCI).
Where a structure was tested more than once in an assay, its records may differ in their call.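 Method: cells in 96-well plates; compound added at one concentration; 48 h incubation; percent growth measured; values under 10 scored active.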 Not every entry of the source has a single result; some have several. Only these are listed. The source may hold further records. The screen tested this drug many times, at the concentration stated with the values; one value stands for one run. Additions like (4×) give the number of equal values in this list.

System: NCI/ADR-RES ovarian
Assay: NCI-60 one-dose screen, 48 h (100 = growth as untreated, 0 = no growth, -100 = all killed)

Structure (SMILES): COc1cccc2c1C(=O)c1c(O)c3c(c(O)c1C2=O)C[C@@](O)(C(=O)CO)C[C@@H]3OC1CC(N)C(O)C(C)O1 (stereo not given in full)
- growth (0.25 µM, runs of 2013): inactive: 112 (2×), 103 (8×), 108 (4×), 114 (4×), 109 (5×), 115 (2×), 104 (7×), 110 (5×), 98.6, 111 (5×), 101 (6×), 107 (2×), 98, 106, 100 (6×), 96.6, 98.7, 105 (4×), 98.8 (2×), 99, 96.2%
- growth (0.25 µM, runs of 2014): inactive: 106 (4×), 95, 101 (6×), 98.2, 97, 103 (5×), 100 (3×), 94.4 (3×), 92.4, 99.1, 104 (7×), 98.6, 99.7 (2×), 92.9, 94.5 (2×), 105 (2×), 107 (2×), 109, 96.2, 91.9, 93.9, 88.2, 89.4, 96.9 (2×), 97.3 (3×), 98.1, 92.1, 99.2, 98.9, 97.1, 96.5, 95.2 (2×), 93.2 (2×), 97.6, 93.3, 90.7, 87.6, 87.5, 86.5%
- growth (0.25 µM, runs of 2015): inactive: 96.5 (3×), 101 (3×), 99.9 (2×), 100, 97.6 (2×), 98.9 (2×), 97.8, 99.2 (2×), 96.9, 97.4 (2×), 94.4 (2×), 89.3, 88.8, 99, 92, 98.2, 97.3 (2×), 97.1 (3×), 95.8 (2×), 94.3 (2×), 94 (2×), 98.6, 96.3, 99.3, 95.2, 90.4, 98.3 (2×), 91.2, 96.4 (2×), 86.7, 104, 89.9, 88.6, 85.8, 90.7, 94.7, 95.4 (2×), 91.3, 92.3, 98, 98.4, 90.5, 92.2, 92.6, 90, 91.8, 96.7, 96.2%
- growth (0.25 µM, runs of 2016): inactive: 91.9, 95.6 (3×), 96.2 (2×), 98.6, 91.2, 95.8, 94.5 (2×), 92.8 (3×), 95.7, 96.6, 93.1 (2×), 96.3 (2×), 89.7, 94.3 (2×), 87.1, 92, 91.1, 92.3, 92.1, 97.4 (2×), 94.7, 97, 96, 99.3 (2×), 98 (2×), 99.6, 98.8 (3×), 98.7, 96.7 (2×), 97.8, 100 (4×), 93.9, 99 (2×), 98.2 (2×), 99.9 (2×), 101 (4×), 94, 92.6, 97.7, 95.4, 94.6, 96.5 (2×), 95, 99.5, 98.9, 97.2, 99.7%
- growth (0.25 µM, runs of 2017): inactive: 98.1 (2×), 99.6, 97.6 (2×), 100 (2×), 95.8 (2×), 97.1, 95.4, 97.3 (2×), 96.6 (2×), 92.8, 91.2, 97.4 (2×), 92, 96, 96.2 (2×), 92.2 (2×), 93.2, 98.7 (2×), 97.2, 97.7, 99.9, 95 (2×), 95.2 (2×), 99.2, 105, 99.1, 93.4 (4×), 99, 94.4, 94.6, 99.5, 98.3, 95.7 (2×), 95.6, 92.3, 92.1 (2×), 91, 92.6 (2×), 94.5, 90.7, 88.9, 93.9, 103% (2×)
- growth (0.25 µM, runs of 2018): inactive: 96.4, 92.9 (2×), 94.4, 96.7 (3×), 97, 92, 96.6 (2×), 94.7, 99.6, 97.2, 103 (3×), 98.2 (2×), 101 (7×), 99.9 (2×), 100 (2×), 91.6, 99.1, 98.7 (2×), 108, 97.4 (2×), 97.8, 99.7, 98.8, 97.6, 98.6, 96.9, 93.9, 98.4, 104, 94.6, 98.3, 85.7%
- growth (0.25 µM, runs of 2019): inactive: 90.5, 97.6, 92.1 (2×), 91.6 (3×), 90, 91 (2×), 85, 87.1, 92.8, 91.2, 97.2, 89.4, 92.3, 91.3 (2×), 93.9, 98.3, 99.7, 89.1, 89.7, 83.7, 93.4, 98.6, 94.3 (2×), 94.6 (2×), 98.8, 93.2, 95.8, 82.5, 89.9%
- growth (0.25 µM, runs of 2020): inactive: 91.8, 85.7, 97.1, 94.3, 95.7, 93.9, 97.6, 99, 98.8, 91, 88.3, 93.2, 87.7, 89.7, 92.1 (2×), 88, 89.6 (2×), 92.6, 88.1, 92.8, 95, 94.7%
- growth (0.25 µM, runs of 2021): inactive: 98.7, 99, 97 (2×), 99.6, 94.6, 97.7 (2×), 98.4 (2×), 92.4, 92.6, 91.9, 98.9, 101 (3×), 97.1, 97.2 (2×), 89.4, 88.8, 93.4 (2×), 94.5, 96.9, 95.6, 98.6 (2×), 94.3, 96.5, 92.8, 99.7, 99.3, 90.9, 89.7, 97.4, 88.5, 84, 85, 88.3, 95, 92%
- growth (0.25 µM, runs of 2022): inactive: 86.7, 84.6, 87.2 (2×), 82.7, 95, 89.5, 98.9 (2×), 97.1, 101 (2×), 88.1, 95.6, 98.8, 97.8, 97.7, 92.3, 94, 85.2, 99.6, 89.4, 104, 81.7, 81.1, 92.2, 85.7%
- growth (25 µM, runs of 1993): inactive: 62 (2×), 59.4, 48.9, 63.5, 51.8, 112, 44.9, 50.7, 66, 45.6, 59, 65.6, 44.8, 53.8, 55.1 (2×), 54, 45.8, 68.1, 69.8, 65.9, 34.2, 48.8, 50.4 (2×), 68.5, 57.3, 35.5, 42, 66.5, 57.6, 55.7, 68.9, 56, 57.5, 53.4, 52.2, 44, 54.7 (2×), 51.2, 65.1, 47.5, 70.2, 47.3%
- growth (25 µM, runs of 1994): inactive: 59.1, 46.7, 55.2, 40.2, 36.6, 48.9, 61.5, 44, 29.6, 46.4 (2×), 55.4, 33.9, 36.7, 76.7, 47.3, 51.5, 37.6, 51.1, 38.5, 60.3, 50.5, 64.4, 58.7, 52.6, 57.3, 44.2, 70.1, 50, 34%
- growth (25 µM, runs of 1995): inactive: 33.4, 36.3, 51.9, 57.8, 44.8, 60.4, 68.7, 59.4, 46.9 (2×), 36.6, 40.9, 47.9, 44.3, 34.2, 36.9, 47.6, 35.9, 48.2, 29.8, 56.9, 60.1, 50.1, 33.1, 41.3, 44.2, 45.4, 39.9, 47.3, 43.3, 46.5, 20.2, 48.8, 57, 66.8, 61.9, 63.8% and active: -23.6%, -10.1%
- growth (25 µM, runs of 1996): inactive: 71.7, 56.7 (2×), 42.7, 54.5, 61.1, 44.8, 53.1, 50.6 (2×), 40, 46.5, 43.4, 39.2, 43.3, 76.7, 47, 70.6, 58.8, 53.5, 51.1 (2×), 57.1, 41.7, 64.6, 26.7, 51.7, 52.6, 28.4, 41.8, 36.3, 28.1 (2×), 32.8, 29.8, 23.6, 21.8, 38.7, 10.8, 44 (2×), 27.8, 33.9, 47.1, 30.8, 40.9 (2×), 24.3, 53, 36.7, 27.2, 67.7, 30.6% and active: 1.22%, -2.15%
- growth (25 µM, runs of 1997): inactive: 48.2, 44.9, 34.9, 47.1, 23.5, 22.4, 28.8, 14, 18.3, 52.3, 33.9, 14.7, 25.8, 38, 19.1, 23.1, 35.9, 37.6, 16.5, 18.4, 38.6, 47.3, 45.5, 68.4, 40.9, 64.5, 39.8, 50.7, 54.7, 52.2, 60, 59, 54.9, 82.3, 50, 45, 42.6, 57.9, 49.9% and active: 0.579, -16.2, 6.75, 0.978%
